Assay results taken from PubChem BioAssay AID588342 (National Center for Advancing Translational Sciences (NCATS), 2011).
In all, about 360,000 compounds went through this assay and about 25,000 (6.9%) were called active. The shares of active, inactive and inconclusive entries below differ from those in the screen. Calls follow the shape of the dose curve; as a rule, active = well fitted inhibition curve with a large enough effect; inconclusive = small, poorly fitted or top-dose-only effect; inactive = flat fitted curve, though single readings scatter. Potencies beside an inconclusive call are fits to weak or partial responses and may not hold up.

The molecules below were run against Luciferin 4-monooxygenase (Photinus pyralis) (UniProt P08659) (assay: qHTS profiling assay for firefly luciferase inhibitor/activator using purifed enzyme and Km concentrations of substrates (counterscreen for miR-21 project)). Settings: purified FLuc, luminescence inhibition; activity change, negative = inhibition: at 57.5 µM (top of the series).
Chain of UniProt P08659 (P08659 whole entry, looked up): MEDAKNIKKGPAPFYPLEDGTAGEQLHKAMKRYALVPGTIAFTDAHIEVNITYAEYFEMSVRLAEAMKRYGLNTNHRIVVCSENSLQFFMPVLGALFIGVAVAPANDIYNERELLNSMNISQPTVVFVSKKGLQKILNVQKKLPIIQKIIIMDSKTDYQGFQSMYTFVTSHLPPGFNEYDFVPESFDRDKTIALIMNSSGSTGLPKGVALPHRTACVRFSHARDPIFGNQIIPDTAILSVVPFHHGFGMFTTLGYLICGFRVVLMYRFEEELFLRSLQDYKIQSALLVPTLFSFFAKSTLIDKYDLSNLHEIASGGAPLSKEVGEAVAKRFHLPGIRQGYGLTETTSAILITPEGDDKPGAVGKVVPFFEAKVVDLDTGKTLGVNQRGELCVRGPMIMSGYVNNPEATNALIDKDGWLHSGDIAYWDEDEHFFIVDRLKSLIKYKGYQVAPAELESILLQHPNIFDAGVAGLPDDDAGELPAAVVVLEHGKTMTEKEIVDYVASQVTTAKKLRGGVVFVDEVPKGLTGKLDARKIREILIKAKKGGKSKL
Outline: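 Purified P. pyralis luciferase (10nM final) with 10uM D-luciferin and 10uM ATP (Km levels) in 50mM Tris acetate pH 7.5, 10mM Mg acetate, 0.01% Tween-20, 0.05% BSA; qHTS 6-point titration, ~60 µM downward; luminescence read.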
Also: nearly all actives have a fitted effect of over 55% in size.
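For activity change, negative = inhibition in this document: plate controls were vehicle for no effect and reference inhibitor for full effect.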
Potency is read from the fitted curve at half-maximal effect; tags tell the direction and shape of the fitted curve.

Row | Structure (SMILES) | Potency | activity change, negative = inhibition
1 | COc1ccc(CCNC(=O)C(C)n2nc(C)c3sc4ccccc4c3c2=O)cc1OC (stereo not drawn) | inconclusive: 13.5 µM [inhibitor, partial curve] | 
2 | Cc1ccc(-c2cc(-c3ccccc3)nc(Cl)n2)cc1 | inconclusive: 19 µM [inhibitor, partial curve, poor fit] | 
3 | CCOC(=O)c1cc2c(ccn2C)n1CC(=O)N1CCC(Cc2ccccc2)CC1 |  | inactive: 3.83%
4 | CCOC(=O)c1ccc(Nc2nc(=O)c3cccnc3s2)cc1 | inconclusive: 8.49 µM [inhibitor, partial curve] | 
5 | CN(C(=O)c1ccccn1)c1nnc(-c2ccccn2)s1 | active: 3.38 µM | 
6 | c1ccc2c(c1)oc1c(NCC3CCCO3)ncnc12 (stereo not drawn) | active: 16.9 µM | 
7 | COCCNC(=O)Cn1cc(/C=C(\C#N)C(=O)NC2CCCC2)c2ccccc21 | inconclusive: 19 µM [inhibitor, partial curve] | 
8 | COc1ccc(NC(=O)C/C(C)=N/NC(=O)C(=O)Nc2cccc(Cl)c2C)c(OC)c1 | inconclusive: 13.5 µM [inhibitor, partial curve, poor fit] | 
9 | COc1ccc2nc(C)cc(SCC(=O)N/N=C/c3ccc(O)c(O)c3)c2c1 | inconclusive: 30.1 µM [inhibitor, partial curve, poor fit] | 
10 | COC(=O)c1c(NC(=S)NC(=O)c2ccco2)sc2c1CCCC2 | inconclusive: 7.57 µM [inhibitor, partial curve, poor fit] | 
11 | CC(=O)Nc1ccc(C(=O)OCc2ccc(F)cc2)cc1 | inconclusive: 21.3 µM [inhibitor, partial curve, poor fit] | 
12 | Cc1ccc(NC(=O)Cc2nnc(SCC(=O)c3ccc(Br)cc3)n2C)cc1 | inconclusive: 4.26 µM [inhibitor, partial curve, poor fit] | 
13 | C=CCNc1ncnc2c1cnn2-c1ccc(OC)cc1 | active: 3.38 µM | 
14 | Cn1c(SCC(=O)c2ccccc2)nnc1-c1cccc(N)c1 | active: 23.9 µM | 
15 | O=C1SC(SCc2ccccc2Cl)=N/C1=C\c1ccc(C(=O)O)cc1 | active: 21.3 µM | 
16 | O=C(Nc1ccon1)c1sc2cc(F)ccc2c1Cl | inconclusive: 2.69 µM [inhibitor, full curve] | 
17 | O=C(Nc1cccc(Cl)c1)Nc1ccccc1NS(=O)(=O)c1cccs1 | active: 16.9 µM | 
18 | COCCNC(=O)Nc1ccc2nc(C)sc2c1 | inconclusive: 33.8 µM [inhibitor, partial curve, poor fit] | 
19 | O=C(OCc1cn(-c2ccc(Cl)c(Cl)c2)nn1)c1ccccc1Cl | inconclusive: 23.9 µM [inhibitor, partial curve, poor fit] | 
20 | CCOC(=O)Cn1nc(N2CCN(c3ccc(F)cc3)CC2)ccc1=O |  | inactive: 0.55%
21 | CC1(CC(=O)Nc2ccccc2)NC(=S)N(c2ccccc2)N1 (stereo not drawn) | inconclusive: 23.9 µM [inhibitor, partial curve, poor fit] | 
22 | Cc1cccc(N2CCN(c3c(CN4CCCC4)c(=O)oc4ccccc34)CC2)c1C |  | inactive: -0.54%
23 | COc1cccc(N/C=C/c2onc(C)c2[N+](=O)[O-])c1 |  | inactive: -2.75%
24 | O=C(c1ccc(Cn2c(=S)[nH]c3ccc(Br)cc3c2=O)cc1)N1CCN(C2CCCCC2)CC1 | inconclusive: 7.57 µM [inhibitor, partial curve] | 
25 | O/N=C/c1ccc2cccc(O)c2n1 | inconclusive: 26.9 µM [inhibitor, partial curve, poor fit] | 

Row | Structure (SMILES) | Potency | activity change, negative = inhibition
26 | O=C(Cc1ccccc1)Nc1ccc2c(c1)CCC2 | inconclusive: 30.1 µM [inhibitor, single point] | 
27 | CC(=O)c1ccc(NC(=O)CN2C(=O)/C(=C/C=C/c3ccccc3)SC2=S)cc1 | inconclusive: 6.01 µM [inhibitor, partial curve, poor fit] | 
28 | Nc1cccc(C(=O)OCC(=O)c2ccccc2)c1 | active: 1.35 µM | 
29 | COc1ccc(N=C2NC(=O)/C(=C\c3ccco3)S2)cc1 | inconclusive: 5.36 µM [inhibitor, partial curve, poor fit] | 
30 | Cc1ccnc(NS(=O)(=O)c2ccc(NC(=O)c3oc4ccc(F)cc4c3C)cc2)n1 | active: 26.9 µM | 
31 | CN(C)/C=C/c1onc(-c2c(F)cccc2Cl)c1C#N | inconclusive: 23.9 µM [inhibitor, single point] | 
32 | COc1ccc(/C=C2\SC(=S)N(CCC(=O)Nc3ccccn3)C2=O)cc1OC | inconclusive: 10.7 µM [inhibitor, partial curve] | 
33 | O=C(CCCN1C(=O)/C(=C/c2ccccc2)SC1=S)Nc1ccc(O)cc1 | inconclusive: 42.6 µM [inhibitor, partial curve, poor fit] | 
34 | CCOc1ncnc2c1sc1nc(C)cc(C)c12 | inconclusive: 9.53 µM [inhibitor, partial curve, poor fit] | 
35 | On1nnc2c3ccccc3c3ccccc3c21 | inconclusive: 16.9 µM [inhibitor, partial curve] | 
36 | CN(C(=O)CSc1nc2ccc(NC(=O)c3ccc(F)cc3)cc2s1)c1ccccc1 | inconclusive: 8.49 µM [inhibitor, partial curve, poor fit] | 
37 | CC(C)CC(=O)Nc1ccc(-c2nc3ccccc3c(=O)[nH]2)cc1 | active: 2.39 µM | 
38 | O=C1CCCc2nc(N3CCN(C(=O)c4ccco4)CC3)ncc21 | active: 26.9 µM | 
39 | CCN1CCN(c2ccc(N=Cc3ccc(O)cc3O)cc2)CC1 | active: 16.9 µM | 
40 | COc1ccc(Cl)cc1CN1CCN(c2nc(C)cc(C)c2C#N)CC1 |  | inactive: -1.89%
41 | O=C(Nc1ccc(CN2CCOCC2)cc1)c1ccccc1F | inconclusive: 23.9 µM [inhibitor, single point] | 
42 | Cc1ccc(C(=O)CC(=O)c2ccc(C)cc2O)cc1 | active: 16.9 µM | 
43 | Cn1c(CNc2ccc(Cl)cc2)nc2ccccc21 | active: 6.75 µM | 
44 | Nc1c(O)ccc2c1C(=O)c1ccccc1C2=O | active: 16.9 µM | 
45 | CCn1ncc(CN2CCCC(C(=O)Nc3cccc(-c4cc5ccccc5[nH]4)c3)C2)c1C (stereo not drawn) |  | inactive: -10.4%
46 | COc1cccc2[nH]c3c(N4CCN(Cc5ccc6c(c5)OCO6)CC4)ncnc3c12 |  | inactive: -10.8%
47 | COc1ccccc1/C=C/C=N/n1c(-c2ccc(F)cc2)n[nH]c1=S | inconclusive: 7.57 µM [inhibitor, full curve] | 
48 | Cc1c(Cl)c(C(=O)NNC(=S)Nc2ccccc2)nn1C | inconclusive: 26.9 µM [inhibitor, single point] | 
49 | O=c1[nH]c(CSc2nc3ccccc3s2)nc2cc(Cl)ccc12 | inconclusive: 42.6 µM [inhibitor, partial curve, poor fit] | 
50 | Cc1ccc2c(cnn2C(=O)CCC(=O)N2CCCCC2C)c1 (stereo not drawn) | inconclusive: 26.9 µM [inhibitor, partial curve] | 

Row | Structure (SMILES) | Potency | activity change, negative = inhibition
51 | Cc1ccnc(N(C(=O)Nc2ccccc2)C2=NCC(C)(C)S2)c1 | active: 19 µM | 
52 | O=C(Nc1cccc(Cl)c1)N1Cc2ccccc2Oc2ncccc21 |  | inactive: -9.17%
53 | COc1ccc(S(=O)(=O)Nc2ccc(O)c(Sc3nc4ccccc4s3)c2)cc1 | inconclusive: 13.5 µM [inhibitor, partial curve] | 
54 | O=C(CN1Cc2ccccc2C1=O)Nc1ccc2c(c1)OCCO2 | active: 23.9 µM | 
55 | CCN(CC)CCN(Cc1cc2ccc(C)c(C)c2[nH]c1=O)C(=S)NCc1ccco1 |  | inactive: -2.39%
56 | CC(=O)NC(CC(=O)N(Cc1ccccc1)c1ccc(C)cc1)c1ccccc1 (stereo not drawn) | inconclusive: 37.9 µM [inhibitor, single point] | 
57 | Cc1ccccc1NC(=S)NC(=O)COc1ccccc1C | inconclusive: 21.3 µM [inhibitor, partial curve, poor fit] | 
58 | O=C(CSc1ccc(-c2ccccn2)nn1)N1CCc2ccccc21 | inconclusive: 26.9 µM [inhibitor, single point] | 
59 | N#Cc1ccccc1CCN1C(=O)c2ccccc2C1=O | inconclusive: 13.5 µM [inhibitor, partial curve, poor fit] | 
60 | CCCCN(C)S(=O)(=O)c1ccc(C(=O)Nc2nnc(C3=COCCO3)o2)cc1 | inconclusive: 26.9 µM [inhibitor, single point] | 
61 | O=C(CNC(=O)c1ccccc1)c1ccccc1 | active: 6.75 µM | 
62 | O=C(CC(c1cccs1)N1Cc2ccccc2C1=O)Nc1ccc(Cl)cc1 (stereo not drawn) |  | inactive: 4.01%
63 | CCc1ccc(NC(=O)CSCCO)cc1 | inconclusive: 37.9 µM [inhibitor, partial curve, poor fit] | 
64 | Cc1ccc(S(=O)(=O)Oc2ccccc2/C=C2\SC(=O)NC2=O)cc1 | inconclusive: 33.8 µM [inhibitor, single point] | 
65 | Cc1csc(NC(=O)CSc2ccc(-c3ccc(F)cc3)nn2)n1 | inconclusive: 16.9 µM [inhibitor, partial curve] | 
66 | CCc1nc(NCCCN2CCOCC2)c2oc3ccccc3c2n1 |  | inactive: -11.3%
67 | Cc1ccc(NC(=O)COc2ccc3c(c2)OCO3)c(Cl)c1 | active: 1.51 µM | 
68 | Cc1ccc2nc(SCC(=O)Nc3cccc([N+](=O)[O-])c3)[nH]c2c1 | inconclusive: 21.3 µM [inhibitor, single point] | 
69 | CCOC(=O)c1[nH]c2ccccc2c1NC(=O)c1ccc(OC)c(OC)c1 |  | inactive: -7.15%
70 | O=C(N/N=C/c1ccc2ncccc2c1)c1cc(-c2cccs2)nc2ccccc12 | inconclusive: 2.39 µM [inhibitor, full curve] | 
71 | COc1cc(NC(=O)COC(=O)Cn2cnc3c2c(=O)n(C)c(=O)n3C)cc(OC)c1 |  | inactive: -1.79%
72 | Oc1cccc(-c2nc3ncccn3c2Nc2cccc(C(F)(F)F)c2)c1 |  | inactive: -1.52%
73 | Cc1cc(N2CCCCCC2)nc(-c2ccccc2O)n1 | inconclusive: 37.9 µM [inhibitor, partial curve, poor fit] | 
